Counter-ions that a name gives are not always drawn. ± gives the standard deviation of the averaged measurements. In all, about 1,300 compounds were measured (“normalised cell viability”: median about 1, lowest 2% from about 0.14 on). The list shows a part of the results.

This assay has as its system V-C8 (BRCA2-deficient hamster cells). Kind of assay: normalised cell viability (fraction of plate median); higher = more viable cells (less toxic). Particulars: 5 µM. In a few lines:
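Hamster V-C8 cells with and without restored BRCA2 were exposed in 96-well plates to library drugs at 5 μM for 3 days (screen 1) or 6 days (screen 2). Cell viability was scored by resazurin assay, then median-plate normalised, averaging triplicate wells.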

As to `NCCC[C@H](N)CC(=O)N[C@H]1CNC(=O)[C@H]([C@H]2C[C@H](O)NC(N)=N2)NC(=O)/C(=C/NC(N)=O)NC(=O)[C@H](CO)NC(=O)[C@H](CO)NC1=O` [Viomycin sulfate], the normalised cell viability runs as follows: (treatment time: 3 days) 0.873 ± 0.035; (treatment time: 6 days) 0.958 ± 0.061.

Consider `O=c1[nH]cnc2c1ncn2[C@H]1CC[C@@H](CO)O1` [Didanosine], for which the normalised cell viability is 0.985 ± 0.041 (treatment time: 3 days) and 0.955 ± 0.04 (treatment time: 6 days).

On to `CN(C/C=C/C#CC(C)(C)C)Cc1cccc2ccccc12` [Terbinafine], for which the normalised cell viability runs as follows: (treatment time: 3 days) 0.181 ± 0.0022; (treatment time: 6 days) 0.229 ± 0.021.

For the molecule `Fc1ccc([C@@H]2CCNC[C@H]2COc2ccc3c(c2)OCO3)cc1` [Paroxetine Hydrochloride], the normalised cell viability by setting is: (treatment time: 3 days) 0.676 ± 0.022; (treatment time: 6 days) 0.707 ± 0.023.

With `Nc1nc(O)c2ncn(CCC(CO)CO)c2n1` [Penciclovir], the normalised cell viability by setting is: (treatment time: 3 days) 0.956 ± 0.023; (treatment time: 6 days) 0.976 ± 0.098.

On to `NCC[C@H](O)C(=O)N[C@@H]1C[C@H](N)[C@@H](O[C@H]2O[C@H](CN)[C@@H](O)[C@H](O)[C@H]2O)[C@H](O)[C@H]1O[C@H]1O[C@H](CO)[C@@H](O)[C@H](N)[C@H]1O` [Amikacin hydrate], for which the normalised cell viability was 0.161 ± 0.0037 (treatment time: 3 days) and 0.146 ± 0.018 (treatment time: 6 days).

On to `O=C1c2cccc3c2[C@H](CCC3)CN1[C@@H]1CN2CCC1CC2` [Palonosetron hydrochloride], for which the normalised cell viability is, setting by setting: (treatment time: 3 days) 1.04 ± 0.037; (treatment time: 6 days) 0.919 ± 0.02.

For the molecule `CC1(C)S[C@@H]2[C@H](NC(=O)Cc3ccccc3)C(=O)N2[C@H]1C(=O)O` [Benzylpenicillin sodium], the normalised cell viability is, setting by setting: (treatment time: 3 days) 0.972 ± 0.015; (treatment time: 6 days) 1.03 ± 0.058.

As for `CC1(C)S[C@@H]2[C@H](NC(=O)Cc3ccccc3)C(=O)N2[C@H]1C(=O)O` [Benzathine benzylpenicillin], the normalised cell viability (treatment time: 3 days) was 1.02 ± 0.094 and the normalised cell viability (treatment time: 6 days) is 1.03 ± 0.056.

Consider `CCCCc1nc(Cl)c(CO)n1Cc1ccc(-c2ccccc2-c2nnn[nH]2)cc1` [Losartan], for which the normalised cell viability is, setting by setting: (treatment time: 3 days) 1.019 ± 0.0051; (treatment time: 6 days) 1.052 ± 0.0052.

`CCN(CC)CCNC(=O)COc1ccc(OC)cc1` [Mefexamide hydrochloride] gave a normalised cell viability (treatment time: 3 days) of 0.961 ± 0.036 and a normalised cell viability (treatment time: 6 days) of 0.933 ± 0.075.

With `Clc1ccc(C(Cn2ccnc2)OCc2csc3c(Cl)cccc23)c(Cl)c1` (stereo not drawn) [Sertaconazole nitrate], the normalised cell viability is 0.737 ± 0.18 (treatment time: 3 days) and 0.821 ± 0.12 (treatment time: 6 days).

As to `CC(=O)OCC1=C(C(=O)O)N2C(=O)[C@@H](NC(=O)Cc3cccs3)[C@H]2SC1` [Cephalothin sodium salt], the normalised cell viability runs as follows: (treatment time: 3 days) 0.939 ± 0.034; (treatment time: 6 days) 0.948 ± 0.058.

In the case of `O=C1CCC(N2C(=O)c3ccccc3C2=O)C(=O)N1` (stereo not drawn) [Thalidomide], the normalised cell viability is 1.03 ± 0.07 (treatment time: 3 days) and 0.957 ± 0.062 (treatment time: 6 days).

Molecule `O=C1NCCN1CCN1CCC(c2cn(-c3ccc(F)cc3)c3ccc(Cl)cc23)CC1` [Sertindole] yielded a normalised cell viability (treatment time: 3 days) of 0.385 ± 0.019 and a normalised cell viability (treatment time: 6 days) of 0.591 ± 0.069.

As to `CNCCCN1c2ccccc2CCc2ccccc21` [Desipramine hydrochloride], the normalised cell viability (treatment time: 3 days) came to 0.907 ± 0.05 and the normalised cell viability (treatment time: 6 days) was 0.865 ± 0.053.

In the case of `O=C1OC(CN2CCOCC2)CN1/N=C/c1ccc([N+](=O)[O-])o1` (stereo not drawn) [Furaltadone hydrochloride], the normalised cell viability stood at 0.93 ± 0.023 (treatment time: 3 days) and 0.917 ± 0.11 (treatment time: 6 days).

As for `O=C(O)CCNC(=O)c1ccc(/N=N/c2ccc(O)c(C(=O)O)c2)cc1` [Balsalazide Sodium], the normalised cell viability came out at 0.973 ± 0.027 (treatment time: 3 days) and 0.953 ± 0.13 (treatment time: 6 days).

Consider `CCC(C)n1ncn(-c2ccc(N3CCN(c4ccc(OCC5COC(Cn6cncn6)(c6ccc(Cl)cc6Cl)O5)cc4)CC3)cc2)c1=O` (stereo not drawn) [Itraconazole], for which the normalised cell viability (treatment time: 3 days) amounted to 0.822 ± 0.07 and the normalised cell viability (treatment time: 6 days) was 0.871 ± 0.041.

Take `Cc1cccc(Nc2ccccc2C(=O)O)c1C` [Mefenamic acid]: the normalised cell viability runs as follows: (treatment time: 3 days) 1.14 ± 0.058; (treatment time: 6 days) 0.959 ± 0.059.

`C[n+]1ccccc1/C=N/O` [Pralidoxime chloride] gave a normalised cell viability (treatment time: 3 days) of 1.03 ± 0.029 and a normalised cell viability (treatment time: 6 days) of 1.02 ± 0.06.

With `O=C(O)CN(CCN(CC(=O)O)CC(=O)O)CCN(CC(=O)O)CC(=O)O` [Pentetic acid], the normalised cell viability runs as follows: (treatment time: 3 days) 0.996 ± 0.04; (treatment time: 6 days) 1.075 ± 0.0064.

In the case of `C#CCN(C)CCCOc1ccc(Cl)cc1Cl` [Clorgyline hydrochloride], the normalised cell viability by setting is: (treatment time: 3 days) 1.11 ± 0.063; (treatment time: 6 days) 1.019 ± 0.0054.

`CC(C)NCC(O)c1cc(O)cc(O)c1` (stereo not drawn) [Metaproterenol sulfate, orciprenaline sulfate]: the normalised cell viability is 1.17 ± 0.22 (treatment time: 3 days) and 1.06 ± 0.011 (treatment time: 6 days).

For the molecule `Cn1c(=O)c2c(ncn2CCO)n(C)c1=O` [Etofylline], the normalised cell viability by setting is: (treatment time: 3 days) 1.03 ± 0.052; (treatment time: 6 days) 0.996 ± 0.039.

The molecule `COc1ccccc1N1CCN(CCCNc2cc(=O)n(C)c(=O)n2C)CC1` [Urapidil hydrochloride] had a normalised cell viability (treatment time: 3 days) of 1.033 ± 0.0072 and a normalised cell viability (treatment time: 6 days) of 1.01 ± 0.019.

On to `CCN(CC)Cc1cc(Nc2ccnc3cc(Cl)ccc23)ccc1O` [Amodiaquin dihydrochloride dihydrate], for which the normalised cell viability by setting is: (treatment time: 3 days) 0.877 ± 0.021; (treatment time: 6 days) 0.934 ± 0.057.

As for `CCC(=O)OCC(=O)[C@@]1(OC(=O)CC)[C@@H](C)C[C@H]2[C@@H]3CCC4=CC(=O)C=C[C@]4(C)[C@@]3(Cl)[C@@H](O)C[C@@]21C` [Beclomethasone dipropionate], the normalised cell viability is, setting by setting: (treatment time: 3 days) 0.991 ± 0.032; (treatment time: 6 days) 0.93 ± 0.013.

`C=CCSCC1Nc2cc(Cl)c(S(N)(=O)=O)cc2S(=O)(=O)N1` (stereo not drawn) [Althiazide]: the normalised cell viability reads like this: (treatment time: 3 days) 0.95 ± 0.059; (treatment time: 6 days) 1.03 ± 0.073.

Take `CN(C)CC/C=C1/c2ccccc2COc2ccc(CC(=O)O)cc21` [Olopatadine hydrochloride]: the normalised cell viability amounted to 1.004 ± 0.0095 (treatment time: 3 days) and 1.04 ± 0.016 (treatment time: 6 days).

Consider `c1ccc(CN(CC2=NCCN2)c2ccccc2)cc1` [Antazoline hydrochloride], for which the normalised cell viability is 0.99955 ± 0.0007 (treatment time: 3 days) and 1.05 ± 0.074 (treatment time: 6 days).

Regarding `CC(=O)N(CC(O)CN(C(C)=O)c1c(I)c(C(=O)NCC(O)CO)c(I)c(C(=O)NCC(O)CO)c1I)c1c(I)c(C(=O)NCC(O)CO)c(I)c(C(=O)NCC(O)CO)c1I` (stereo not drawn) [Iodixanol], the normalised cell viability came to 0.989 ± 0.1 (treatment time: 3 days) and 1.02 ± 0.037 (treatment time: 6 days).

For `CC(C(=O)O)c1ccc(C(=O)c2ccccc2)s1` (stereo not drawn) [Tiaprofenic acid], the normalised cell viability reads like this: (treatment time: 3 days) 0.163 ± 0.0088; (treatment time: 6 days) 0.153 ± 0.0061.

`N=C(N)NCCN1CCCCCCC1` [Guanethidine sulfate]: the normalised cell viability by setting is: (treatment time: 3 days) 0.956 ± 0.096; (treatment time: 6 days) 0.928 ± 0.088.

Source of the values: the supplement of paper PMC6609913.
